{"source": "the supplement of paper PMC9446081", "note": "Screen size: about 39,000 compounds; about 220 (0.56%) showed activity. This is one part of the list.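 Note: static incubation at 37 °C against the wild-type strain, values averaged over two biological replicates.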"}
{"test_system": "Escherichia coli K-12 BW25113", "assay": "relative growth (OD600 normalised to plate interquartile mean) (fraction); higher = less growth inhibition, active = 0.2 or less", "settings": "50 µM; LB; incubation time: overnight (16-24 h)"}
{"smiles": "CN(C)c1nc(SCC(N)=O)nc(N(C)C)n1", "relative growth": "inactive: 0.995"}
{"smiles": "O=C(CCCCCCC(=O)Nc1ccc([C@H]2O[C@@H](CSc3ccncc3)C[C@@H](c3ccccc3)O2)cc1)NO", "relative growth": "inactive: 1.02"}
{"smiles": "CC(C)(CN)CN1CCCCCC1", "relative growth": "inactive: 1.03"}
{"smiles": "COc1ccc(S(=O)(=O)N(C)C[C@@H]2OCCCC[C@H](C)Oc3ccc(NC(=O)CCC(F)(F)F)cc3C(=O)N([C@@H](C)CO)C[C@H]2C)cc1", "relative growth": "inactive: 1.03"}
{"smiles": "CC(C)C#Cc1cnc2c(c1)C(=O)N([C@H](C)CO)C[C@@H](C)[C@H](CN(C)S(=O)(=O)c1cn(C)cn1)O2", "relative growth": "inactive: 1.01"}
{"smiles": "COc1ccc(S(=O)(=O)N(C)C[C@H]2Oc3ccc(NC(=O)Cc4ccccc4)cc3CC(=O)N([C@H](C)CO)C[C@@H]2C)cc1", "relative growth": "inactive: 1.02"}
{"smiles": "C[C@H](CO)N1C[C@H](C)[C@@H](CN(C)S(=O)(=O)c2ccc(F)cc2)Oc2ccc(NC(=O)Cc3ccccc3)cc2CC1=O", "relative growth": "inactive: 1"}
{"smiles": "COc1ccc(S(=O)(=O)N(C)C[C@H]2Oc3c(NC(=O)NC(C)C)cccc3C(=O)N([C@@H](C)CO)C[C@@H]2C)cc1", "relative growth": "inactive: 1.01"}
{"smiles": "Cc1noc(C)c1NC(=O)N(C)C[C@H]1Oc2ccc(NS(=O)(=O)c3cn(C)cn3)cc2CC(=O)N([C@@H](C)CO)C[C@H]1C", "relative growth": "inactive: 0.977"}
{"smiles": "C[N+](C)(C)CCCCNC(=O)[C@@H]1C[C@@H]2C(=O)N[C@@H](CCCC[N+](C)(C)C)C(=O)N2[C@@H]1c1ccc(O)cc1", "relative growth": "inactive: 1.01"}
{"smiles": "C[C@H](CO)N1C[C@H](C)[C@@H](CN(C)CC2CC2)Oc2c(NS(=O)(=O)c3cn(C)cn3)cccc2C1=O", "relative growth": "inactive: 0.999"}
{"smiles": "COC1CNC1", "relative growth": "inactive: 0.968"}
{"smiles": "C[C@@H]1CCCCO[C@@H](CN(C)C(=O)Nc2ccc(C(F)(F)F)cc2)[C@H](C)CN([C@@H](C)CO)C(=O)c2cc(NC(=O)c3ccncc3)ccc2O1", "relative growth": "inactive: 0.925"}
{"smiles": "CCCN(C)C[C@@H]1OCCCC[C@@H](C)Oc2ccc(NC(=O)CCC(F)(F)F)cc2C(=O)N([C@H](C)CO)C[C@@H]1C", "relative growth": "inactive: 1"}
{"smiles": "CCS(=O)(=O)N1CCN(C[C@@H](C)O)CC1", "relative growth": "inactive: 0.984"}
{"smiles": "COCC(=O)N(C)C[C@@H]1Oc2cc(C#Cc3ccccc3)ccc2S(=O)(=O)N([C@@H](C)CO)C[C@@H]1C", "relative growth": "inactive: 1.06"}
{"smiles": "C[C@H]1CCCCO[C@@H](CN(C)Cc2ccccc2)[C@@H](C)CN([C@@H](C)CO)C(=O)c2cc(NC(=O)Cc3ccccc3)ccc2O1", "relative growth": "inactive: 0.988"}
{"smiles": "COc1cccc(S(=O)(=O)Nc2ccc3c(c2)OC[C@@H](C)N(C(=O)Cc2cccnc2)C[C@@H](C)[C@@H](OC)CN(C)C3=O)c1", "relative growth": "inactive: 1"}
{"smiles": "C[C@H](CO)N1C[C@H](C)[C@H](CN(C)C(=O)Nc2ccc(F)cc2)OCCCC[C@H](C)Oc2ccc(NC(=O)C3CCOCC3)cc2C1=O", "relative growth": "inactive: 0.981"}
{"smiles": "C[C@@H]1CN([C@H](C)CO)C(=O)Cc2cc(NC(=O)CCN3CCOCC3)ccc2O[C@@H]1CN(C)C(=O)Nc1ccc(F)cc1", "relative growth": "inactive: 1.05"}
{"smiles": "COc1cccc(-c2ccc3c(c2)O[C@@H](CN(C)C(=O)C2CCOCC2)[C@@H](C)CN([C@H](C)CO)S3(=O)=O)c1", "relative growth": "inactive: 0.972"}
{"smiles": "C[C@H]1CN([C@@H](C)CO)C(=O)c2cc(NC(=O)c3ccncc3)ccc2O[C@H]1CN(C)S(=O)(=O)c1ccccc1", "relative growth": "inactive: 1.01"}
{"smiles": "C[C@@H]1CN([C@@H](C)CO)C(=O)c2cc(NS(=O)(=O)c3ccccc3)ccc2O[C@H]1CN(C)Cc1ccc(Cl)c(Cl)c1", "relative growth": "inactive: 1.01"}
{"smiles": "C[C@H](O)C#Cc1ccc2c(c1)O[C@H](CN(C)C(=O)Cc1ccccn1)[C@@H](C)CN([C@@H](C)CO)S2(=O)=O", "relative growth": "inactive: 1.01"}
{"smiles": "C[C@@H]1CN([C@@H](C)CO)S(=O)(=O)c2ccc(C#Cc3ccccc3F)cc2O[C@H]1CN(C)C(=O)c1ccc2c(c1)OCO2", "relative growth": "inactive: 1.03"}
{"smiles": "CC(=O)N[C@@H]1CC[C@H](CCNC(=O)C2CC2)O[C@H]1CO", "relative growth": "inactive: 0.967"}
{"smiles": "C[C@@H]1CN([C@H](C)CO)C(=O)c2cc(NS(=O)(=O)c3ccc(Cl)cc3)ccc2O[C@@H](C)CCCCO[C@H]1CN(C)Cc1ccc2c(c1)OCO2", "relative growth": "inactive: 0.975"}
{"smiles": "CC(C)NC(=O)N(C)C[C@@H]1Oc2ccc(NS(=O)(=O)c3cccs3)cc2CC(=O)N([C@H](C)CO)C[C@H]1C", "relative growth": "inactive: 1"}
{"smiles": "COc1ccc(NC(=O)Nc2ccc3c(c2)C(=O)N([C@@H](C)CO)C[C@@H](C)[C@H](CN(C)Cc2ccc(C(F)(F)F)cc2)O3)cc1", "relative growth": "inactive: 1.06"}
{"smiles": "COCC(=O)N1c2ccccc2C[C@H]1C(N)=O", "relative growth": "inactive: 1"}
{"smiles": "C[C@@H]1CN([C@H](C)CO)C(=O)Cc2cc(NC(=O)CCCCCC(=O)Nc3ccccc3N)ccc2O[C@H]1CN(C)Cc1ccccc1", "relative growth": "inactive: 0.988"}
{"smiles": "Cc1ccc(S(=O)(=O)N(C)C[C@H]2Oc3c(NC(=O)c4cc(C)nn4C)cccc3C(=O)N([C@H](C)CO)C[C@H]2C)cc1", "relative growth": "inactive: 0.997"}
{"smiles": "N[C@H](CSCSC[C@H](N)C(=O)O)C(=O)O", "relative growth": "inactive: 1.02"}
{"smiles": "NCC[C@@H]1CC[C@@H](NC(=O)Cc2ccncc2)[C@@H](CO)O1", "relative growth": "inactive: 0.994"}
{"smiles": "CN1CCN(C(=O)C[C@H]2CC[C@@H]3[C@@H](COc4ccc(NC(=O)c5cccs5)cc4C(=O)N3C)O2)CC1", "relative growth": "inactive: 1"}
{"smiles": "Cc1noc(C)c1NC(=O)Nc1ccc2c(c1)C(=O)N([C@@H](C)CO)C[C@H](C)[C@H](CN(C)CC1CCCCC1)OCCCC[C@@H](C)O2", "relative growth": "inactive: 1.05"}
{"smiles": "Cn1c(=O)c2c(ncn2CC(=O)O)n(C)c1=O", "relative growth": "inactive: 1.09"}
{"smiles": "Cc1noc(C)c1S(=O)(=O)N(C)C[C@@H]1OCCCC[C@H](C)Oc2ccc(NS(C)(=O)=O)cc2C(=O)N([C@@H](C)CO)C[C@H]1C", "relative growth": "inactive: 0.987"}
{"smiles": "C[C@H](CO)N1C[C@H](C)[C@H](CN(C)CC2CC2)Oc2ccc(NC(=O)CCN3CCOCC3)cc2C1=O", "relative growth": "inactive: 1.01"}
{"smiles": "Cc1noc(C)c1NC(=O)N[C@@H]1C=C[C@@H](CC(=O)N2CCN(C)CC2)O[C@H]1CO", "relative growth": "inactive: 0.99"}
{"smiles": "COc1ccc(NC(=O)N(C)C[C@@H]2OCCCC[C@@H](C)Oc3ccc(NC(=O)c4ccccc4)cc3C(=O)N([C@H](C)CO)C[C@@H]2C)cc1", "relative growth": "inactive: 0.998"}
{"smiles": "Cc1noc(C)c1NC(=O)Nc1ccc2c(c1)C(=O)N([C@@H](C)CO)C[C@H](C)[C@@H](CN(C)Cc1ccc(C(F)(F)F)cc1)OCCCC[C@@H](C)O2", "relative growth": "inactive: 0.986"}
{"smiles": "COc1ccc(-c2cnc3c(c2)C(=O)N([C@H](C)CO)C[C@H](C)[C@H](CN(C)S(=O)(=O)c2cccc(OC)c2)O3)cc1", "relative growth": "inactive: 0.999"}
{"smiles": "C[C@@H]1CN([C@@H](C)CO)C(=O)c2cc(NC(=O)NC3CCCCC3)ccc2O[C@@H]1CN(C)Cc1ccc(Oc2ccccc2)cc1", "relative growth": "inactive: 1.06"}
{"smiles": "COc1ccc(NC(=O)Nc2ccc3c(c2)C(=O)N([C@H](C)CO)C[C@H](C)[C@@H](CN(C)S(=O)(=O)c2ccc(C)cc2)OCCCC[C@H](C)O3)cc1", "relative growth": "inactive: 1.04"}
{"smiles": "C[C@H]1CN([C@@H](C)CO)S(=O)(=O)c2ccc(Br)cc2O[C@H]1CN(C)C(=O)c1cccc(F)c1", "relative growth": "inactive: 1.02"}
{"smiles": "CN(C)CCCNC(=O)C[C@@H]1CC[C@H]2[C@@H](COC[C@@H](O)CN2C(=O)c2cc(Cl)cc(Cl)c2)O1", "relative growth": "inactive: 1.01"}
{"smiles": "COc1ccc(NC(=O)N(C)C[C@@H]2Oc3ccc(NC(=O)Cn4cnnn4)cc3C(=O)N([C@@H](C)CO)C[C@@H]2C)cc1", "relative growth": "inactive: 0.988"}
{"smiles": "COc1ccc(S(=O)(=O)Nc2ccccc2CN(C)C/C=C/c2ccc(Cl)cc2)cc1.O=P(=O)OO", "relative growth": "inactive: 1.01"}
{"smiles": "Cc1noc(C)c1NC(=O)N(C)C[C@H]1Oc2ccc(NC(=O)c3ccncc3)cc2CC(=O)N([C@@H](C)CO)C[C@@H]1C", "relative growth": "inactive: 0.984"}
{"smiles": "O=C(C[C@H]1C=C[C@@H](NC(=O)CN2CCOCC2)[C@H](CO)O1)NC1CCC1", "relative growth": "inactive: 0.999"}
{"smiles": "COc1ccc(S(=O)(=O)Nc2ccc3c(c2)C(=O)N([C@@H](C)CO)C[C@H](C)[C@H](CN(C)C(=O)CCC(F)(F)F)OCCCC[C@H](C)O3)cc1", "relative growth": "inactive: 0.992"}
{"smiles": "Nc1ccccc1O", "relative growth": "inactive: 0.899"}
{"smiles": "Cc1ccccc1S(=O)(=O)N1C[C@H](O)COC[C@@H]2O[C@H](CC(=O)N3CCN(C)CC3)CC[C@H]21", "relative growth": "inactive: 1.01"}
{"smiles": "COc1ccc(NC(=O)Nc2ccc3c(c2)C(=O)N([C@@H](C)CO)C[C@H](C)[C@H](CN(C)C(=O)NC2CCCCC2)OCCCC[C@H](C)O3)cc1", "relative growth": "inactive: 1.02"}
{"smiles": "Cc1cccc(OC[C@H](O)Cn2c(N3CCN(C)CC3)nc3c2c(=O)n(C)c(=O)n3C)c1", "relative growth": "inactive: 1.01"}
{"smiles": "Nc1nnc([C@H]2CCCO2)s1", "relative growth": "inactive: 0.983"}
{"smiles": "COCC(=O)Nc1ccc2c(c1)OC[C@@H](C)N(Cc1cccc(F)c1)C[C@H](C)[C@@H](OC)CN(C)C2=O", "relative growth": "inactive: 0.988"}
{"smiles": "C[C@@H]1CCCCO[C@H](CN(C)C(=O)Nc2ccc(F)cc2)[C@@H](C)CN([C@H](C)CO)C(=O)c2cc(NC(=O)Cc3ccccc3)ccc2O1", "relative growth": "inactive: 1.01"}
{"smiles": "Cc1ccc(-c2ccc3c(c2)O[C@H](CN(C)C(=O)Nc2ccc(C(F)(F)F)cc2)[C@@H](C)CN([C@@H](C)CO)S3(=O)=O)cc1", "relative growth": "inactive: 0.977"}
{"smiles": "C[C@@H]1CCCCO[C@H](CN(C)C(=O)Nc2ccc(C(F)(F)F)cc2)[C@@H](C)CN([C@H](C)CO)C(=O)c2cc(NS(=O)(=O)c3ccc(F)cc3)ccc2O1", "relative growth": "inactive: 0.984"}
{"smiles": "CC(=O)Oc1cc2c(c(C)c1OC(C)=O)CC=C1[C@@]2(C)CC[C@@]2(C)[C@H]3C[C@](C)(C(=O)O)CC[C@]3(C)CC[C@]12C", "relative growth": "inactive: 1.01"}
